The source of these data is patent US12403125B2, “Use of Ovatodiolide against SARS-CoV-2” (Peking University Shenzhen Graduate School, priority 2020, dated 2025).

This data set relates to Salmonella typhimurium TA98, TA100, TA102, TA1535 and TA1537 strains. The data set is described as follows: Ames test of Salmonella reverse mutation, with bacterial toxicity test.

As for `C=C1C(=O)O[C@@H]2/C=C(\C)C[C@H]3C=C(CC/C=C(\C)CC[C@@H]12)C(=O)O3` [Ovatodiolide], the “bacterial gene mutation test result” value (Ames test, with and without S9) is recorded as “negative”. Also, the “number of reverse mutation bacteria relative to negative control group” value (acting directly or with S9, 48 hours co-cultivation, up to 5 mg/plate (TA102) or 2.5 mg/plate (other strains)) was “not more than 2 times”. Moreover, the “bacterial toxicity to TA98, TA100, TA1535 and TA1537 strains” value (concentration 2.5 mg/plate or less, 18 hours) is “no significant toxicity”. Moreover, where the note is “concentration 5 mg/plate or less, 18-20 hours”, the “bacterial toxicity to TA102 strain” value is “no significant toxicity”.
